Test results from publication PMC10668032.
This is one part of the list. At the low end of the ranking, values are background and their order means little.

target: SIX1 homeodomain (reference allele) (UniProt Q15475); test: universal protein binding microarray; details: Universal all-10-mer PBM (8x60K, AMADID 030236), 300 nM GST-tagged protein, Alexa Fluor 488 anti-GST; buffer, salt, pH and temperature not stated; high values mean tight binding; most listed sequences are background and not binding sites; double strand, one strand shown

Sequence	binding signal
CCTTCTAA	0.112 E-score
GAACGGAA	-0.144 E-score
CTAACCAC	-0.127 E-score
CACATTTA	-0.218 E-score
CAGACCTA	-0.238 E-score
AACTGAGA	0.07 E-score
ATCAAGCA	0.174 E-score
GTCAAGGA	-0.091 E-score
CCGGTGGA	-0.0286 E-score
GGGAGACC	0.0887 E-score
GGAGGCGA	0.108 E-score
GCAAGGCC	-0.263 E-score
GGATATCA	0.487 E-score
GACTACAA	-0.196 E-score
ATTTTTGC	-0.128 E-score
ATTCGATA	0.302 E-score
ACGATAAT	0.116 E-score
AGTAAATC	-0.115 E-score
ACAGACAC	0.0849 E-score
CGCTCGTC	-0.0455 E-score
AACCGGAG	-0.0866 E-score
TCGGGCCA	-0.0576 E-score
ATCACAGA	0.262 E-score
ACTACGTA	0.0788 E-score
GTTGATAA	0.123 E-score

Sequence	binding signal
ATTTATTA	-0.0146 E-score
CACAAGAG	-0.0821 E-score
ATCTTGCC	0.033 E-score
CCTGTTAA	-0.0724 E-score
CGAGCGCC	-0.252 E-score
CATGAGAA	0.036 E-score
ATGCTCCC	-0.0837 E-score
CGTCCCAA	-0.184 E-score
GAGGGCAA	-0.0619 E-score
CGCTCCCC	-0.0672 E-score
GGTCTACA	-0.0375 E-score
CTCTGACA	0.0184 E-score
ACCTCTAA	-0.0571 E-score
GCCCCATA	0.076 E-score
TACGCAAA	-0.0349 E-score
CAGAGCAC	-0.0331 E-score
CGACCACG	-0.178 E-score
CGAACCTA	-0.0427 E-score
ATACGGAT	0.425 E-score
CGAACTGC	-0.0566 E-score
GACGAAAC	-0.174 E-score
AATGGCTA	-0.0738 E-score
AATAAGGT	-0.109 E-score
AAACTTCC	-0.239 E-score
CCGGCGAA	0.0279 E-score

Sequence	binding signal
ACCCCGTC	0.161 E-score
ACCGGGTC	0.0882 E-score
GCAACATA	0.0234 E-score
CCCCTAAA	-0.0537 E-score
GGTGACGA	-0.164 E-score
CGGGTGGA	0.236 E-score
ACAAAGAA	-0.205 E-score
CCCTCCAG	0.134 E-score
GCAACGCC	-0.0673 E-score
GGAAAGCA	-0.197 E-score
AAATCAGT	-0.167 E-score
CAAATTCA	-0.14 E-score
TCGAGCCA	-0.0373 E-score
CGCTGGTA	0.0642 E-score
CCCATTGC	-0.0557 E-score
ACTATGAA	-0.0761 E-score
CGAGATTC	-0.0671 E-score
CGAGTAAC	0.033 E-score
TCGGTCAA	-0.167 E-score
ATTCAGTA	-0.0364 E-score
AACACGGG	0.041 E-score
CAAGGGGG	0.118 E-score
ATAAAGTG	0.13 E-score
ACTTTGAT	0.0693 E-score
GACACCAC	0.439 E-score

Sequence	binding signal
CGTAAATA	-0.176 E-score
CCTGCTCG	-0.138 E-score
CAAAGTCG	-0.266 E-score
ACATATCA	0.446 E-score
AGAGAGTC	-0.166 E-score
TAGATTAA	0.0424 E-score
AGAGGGGA	0.0764 E-score
AGTACAGA	0.0911 E-score
ATCCGTCA	0.148 E-score
CTCCGGCA	0.0204 E-score
TAACTATA	0.0222 E-score
GCAGCTCA	0.0222 E-score
CACACACG	-0.0115 E-score
CCTTCACC	-0.101 E-score
ACCGTTGC	-0.0967 E-score
GGCAGCGA	-0.0111 E-score
AGACTACC	-0.0403 E-score
AGCACCCC	0.0734 E-score
GACACCTA	0.357 E-score
AATGATGC	0.0466 E-score
ACAGTGAT	0.199 E-score
AAGGACGA	-0.125 E-score
ACTGACCT	-0.265 E-score
CAGCACTC	-0.276 E-score
AATAGGAC	-0.12 E-score

Sequence	binding signal
ACAAGAAA	-0.197 E-score
TGGAACCA	-0.137 E-score
AGAAGATG	0.0521 E-score
ACTTGATG	-0.0445 E-score
AGCGGGGG	0.0499 E-score
CTAGCTAG	-0.0497 E-score
AGGTCCGA	0.0566 E-score
GAAACATC	-0.0537 E-score
GGTCTGAC	-0.22 E-score
CTCTCACA	0.00104 E-score
GGGACAAA	-0.175 E-score
ACTCTCCA	-0.0886 E-score
ATAGTGAG	0.0731 E-score
ATACACGG	0.25 E-score
AGGGCGAC	-0.0414 E-score
CGCGCTTC	-0.123 E-score
GCTCCAGA	0.0304 E-score
CGGTGATC	0.351 E-score
AGACGGAT	0.402 E-score
TAATTACA	-0.106 E-score
GTACGGTA	0.0824 E-score
ACTTCTCG	-0.046 E-score
GAGTCCTA	-0.0675 E-score
CTCAAGGC	-0.0958 E-score
CGGTAGTA	-0.0428 E-score

Sequence	binding signal
AGGCTTGG	-0.214 E-score
TAGAAGAA	-0.00643 E-score
AATAAAGT	-0.0148 E-score
CAAAAGTG	-0.0709 E-score
CATCCCAG	0.172 E-score
ACTCGCCC	-0.123 E-score
AACTAATG	-0.113 E-score
ACCCACAC	0.142 E-score
CGGGACTA	-0.273 E-score
GTGTTCTA	0.0365 E-score
ACGACTGC	-0.162 E-score
CTTCCGCC	-0.106 E-score
GCGATGTA	-0.0056 E-score
AGGGGACA	0.00302 E-score
GGAGAGCA	-0.119 E-score
CTCCTGAA	-0.0438 E-score
ACGCCCGA	0.0873 E-score
ACGTCCAT	-0.127 E-score
AATTTAAA	-0.169 E-score
ACCTAGTC	-0.0876 E-score
GATCCCCC	0.47 E-score
CATTTAAG	-0.221 E-score
CACATTAC	-0.0893 E-score
ACAGAAGA	-0.00212 E-score
CTGAAGTC	-0.23 E-score

Sequence	binding signal
CACTGAGA	0.188 E-score
CCAATAAA	-0.0581 E-score
AACGTCTA	-0.0932 E-score
GCTACATA	0.0846 E-score
GTGTTACA	0.108 E-score
GCATCCGA	0.203 E-score
ATTCTGAA	-0.225 E-score
GCCACAAA	-0.123 E-score
GATTATAC	0.34 E-score
GGTTCTAC	-0.0478 E-score
AACGACAG	-0.149 E-score
GATCAACC	0.319 E-score
GATTGTAA	0.0188 E-score
ATGGCGCG	-0.156 E-score
GGATGCAC	-0.102 E-score
ACTTGCCA	-0.274 E-score
GGACCCCA	0.0357 E-score
CATGGTCG	0.0185 E-score
GCCCGGCC	-0.0409 E-score
ACCACACA	-0.116 E-score
ATCCTTAC	0.247 E-score
ACATATCC	0.381 E-score
ACAGAGAT	0.138 E-score
AATGGGGA	-0.0813 E-score
TCAGCAAA	-0.0512 E-score

Sequence	binding signal
ACCTAAAG	-0.182 E-score
GGACGATA	0.321 E-score
CATCTAGC	-0.15 E-score
ACAACTGG	-0.0531 E-score
AACAGACC	-0.173 E-score
CAAAACGA	-0.0138 E-score
ATTAGTAA	-0.146 E-score
GTAGCTGA	-0.13 E-score
CACTATTC	-0.13 E-score
ACATTGAA	-0.144 E-score
AGACCATC	-0.162 E-score
GGCGCAAA	-0.209 E-score
ATGCGTAC	-0.0571 E-score
AGCGGAAT	-0.169 E-score
CGGTTCAG	-0.098 E-score
CAGTAAAC	0.0198 E-score
AACTTGGA	0.0464 E-score
AAGAAAAA	-0.108 E-score
GACCACGC	-0.112 E-score
AAGTGAGA	0.142 E-score
AGGTTCTC	-0.00898 E-score
TAGCGGAA	-0.103 E-score
AGACATGC	-0.0943 E-score
CCCTCACG	-0.0727 E-score
AGAAGTCT	-0.155 E-score

Sequence	binding signal
GATGTGTA	0.119 E-score
CAGATTCC	-0.047 E-score
TCCGATCA	0.212 E-score
CAGAACCC	-0.0182 E-score
ACACCACT	0.378 E-score
AAATTTCC	-0.232 E-score
CTAGTTCA	-0.211 E-score
CCAACCGA	0.0868 E-score
AAAGATTA	-0.0747 E-score
AGACTTCC	-0.135 E-score
CGAATCGC	-0.0572 E-score
CTTGTAAA	-0.331 E-score
AACATTCC	-0.341 E-score
GAAAAGAC	-0.182 E-score
CACCGTAC	0.184 E-score
GCTAAAAC	-0.238 E-score
TATCCTGA	0.382 E-score
GTCTCCAC	-0.162 E-score
GCCACGTA	-0.136 E-score
